Test results as given in PubChem BioAssay AID1347073 (National Center for Advancing Translational Sciences (NCATS), 2019).
Screen size: about 45,000 compounds; about 200 (0.44%) were called active. The shares of active, inactive and inconclusive entries below differ from those in the screen. Calls come from the whole dose curve; as a rule, active = well fitted activation curve with a large enough effect; inconclusive = small, poorly fitted or top-dose-only effect; inactive = no such curve, though single readings can be large or run the other way. Where the call is inconclusive, the potency comes from a doubtful curve fit.
Potency is the fitted concentration of half-maximal effect; tags give direction and shape of the fitted curve.

Assay: qHTS of TDP-43 Inhibitors: NCGC Sytravon Library Screen; note: nearly all actives have a fitted effect of over 55% in size; for growth rescue (activation): 0% is about no effect
Settings: yeast TDP-43 toxicity rescue, BacTiter-Glo growth, 24 h; growth rescue (activation): at 46.1 µM (top of the series)
How it was run: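 TDP-43-expressing yeast, pregrown in raffinose, seeded at OD600 0.02 in galactose medium with compound for 24 hr at 30 deg C. Growth read by BacTiter-Glo luminescence, so rescue of toxicity appears as activation.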
For Cc1nc(NC(=O)c2ccco2)sc1C(=O)O, the “growth rescue (activation)” value was inactive: -51%.
For Cc1cc(C(=O)COc2ccc([N+](=O)[O-])cc2)c(C)n1C1CC1, the Potency was inconclusive: 14.1 µM [activator, partial curve, poor fit].
In the case of S=c1[nH]cnc2scc(-c3ccc(Br)cc3)c12, the “growth rescue (activation)” value is reported as inactive: 23.5%.
In the case of COc1ccccc1CNc1nc(Oc2cccc(F)c2)c2sccc2n1, the growth rescue (activation) is reported as inconclusive: 81.9% [activator].
For CSc1cccc(NC(=O)CC(C)n2ccnc2)c1 (stereo not drawn), the “growth rescue (activation)” value was inactive: 3.99%.
For O=C(Nc1cccc(C(F)(F)F)c1)C1Cc2c(-c3ccccc3)ccnc2O1 (stereo not drawn), the Potency was inconclusive: 20 µM [activator, partial curve, poor fit].
In the case of CCCCN(C)C(=O)c1cc2c(Cl)nc3ccccc3c2s1, the Potency is reported as inconclusive: 28.2 µM [activator, single point].
In the case of S=c1[nH]nc(-c2ccc(Cl)cc2Cl)n1Cc1ccccc1, the Potency is reported as inconclusive: 20 µM [activator, single point].
For Fc1ccc(NC(=S)Nc2ccc(Cl)cc2)cc1, the Potency was inconclusive: 31.6 µM [activator, single point].
With O=C(CN1C(=O)NC2(CCCc3ccccc32)C1=O)c1ccccc1F (stereo not drawn) the Potency was inconclusive: 35.5 µM [activator, partial curve, poor fit].
With CCCc1ccc(OCC(=O)Nc2sc3c(c2C(=O)OC)CCCCC3)cc1 the “growth rescue (activation)” value was inactive: 8.81%.
For CS/C(=N\S(=O)(=O)c1cccs1)Nc1cccc(Cl)c1C, the Potency was inconclusive: 31.6 µM [activator, single point].
In the case of COc1ccccc1CCNC(=O)C1CCC(=O)N(C2CCCCCC2)C1 (stereo not drawn), the “growth rescue (activation)” value is reported as inactive: 28.9%.
For CCC(C(=O)Nc1cccc(C(F)(F)F)c1)c1ccccc1 (stereo not drawn), the Potency was inconclusive: 22.4 µM [activator, single point].
With O=C(c1ccccn1)C1CCCN(Cc2nc(Cc3cccc(F)c3)no2)C1 (stereo not drawn) the Potency was inconclusive: 35.5 µM [activator, single point].
In the case of CCOC(=O)Cc1csc(NC(=O)c2cc3ccccc3o2)n1, the Potency is reported as inconclusive: 14.1 µM [activator, partial curve].
In the case of O=C(NC1=NCCS1)c1cc(-c2cccs2)nc2ccccc12, the Potency is reported as inconclusive: 20 µM [activator, single point].
With COc1ccc(/C=N/Nc2ccc([N+](=O)[O-])cc2)cc1O the Potency was inconclusive: 11.2 µM [activator, partial curve, poor fit].
For CCOC(=O)N1CCN(S(=O)(=O)c2ccc(OC)c3ccccc23)CC1, the Potency was inconclusive: 22.4 µM [activator, partial curve, poor fit].
For CN(C)C(=O)c1ccc(Nc2ncnc3sc4c(c23)CCCCC4)cc1, the Potency was inconclusive: 14.1 µM [activator, partial curve, poor fit].
With Fc1ccc(-n2c(-c3ccc4c(c3)OCO4)n[nH]c2=S)cc1Cl the Potency was inconclusive: 11.2 µM [activator, partial curve, poor fit].
In the case of CSc1nc(C)cc(Oc2ccccc2)n1, the “growth rescue (activation)” value is reported as inactive: 18.8%.
With COc1ccc(C2=NC(C)(C)N(CC(=O)Nc3cccc(C)c3)C2=O)cc1 the Potency was inconclusive: 31.6 µM [activator, single point].
In the case of Cc1ccc(NC(=O)c2sccc2C)cc1S(=O)(=O)N(C)C, the Potency is reported as inconclusive: 11.2 µM [activator, partial curve, poor fit].
For O=C(NC1CCN(S(=O)(=O)c2cccc(Cl)c2)CC1)C1CCCCC1, the “growth rescue (activation)” value was inactive: 10.8%.
In the case of COc1cc(CNC(=O)c2cccc(COc3ccc(Cl)cc3)c2)cc(OC)c1, the Potency is reported as inconclusive: 11.2 µM [activator, single point].
In the case of CCCNC(=O)C1(C)CCN(Cc2ccc(C(=O)OCC)cc2)C1 (stereo not drawn), the “growth rescue (activation)” value is reported as inactive: -10%.
For CC1(C(=O)Nc2ccc(Cl)c(Cl)c2)CCN1C(=O)CC1CCCC1 (stereo not drawn), the growth rescue (activation) was inconclusive: 34.4% [activator].
For C[n+]1cccc(/C=N/NC(=O)CC23CC4CC(CC(C4)C2)C3)c1, the Potency was inconclusive: 11.2 µM [activator, single point].
With O=C(CCl)Nc1nc(-c2ccco2)c(-c2ccco2)s1 the Potency was inconclusive: 35.5 µM [activator, single point].
In the case of Cc1cc(-c2nnc(CCC(=O)NC(C)(C)C34CC5CC(CC(C5)C3)C4)o2)no1, the Potency is reported as inconclusive: 11.2 µM [activator, single point].
With N#Cc1c(-c2ccc(Cl)cc2)ccnc1N1CCOCC1 the Potency was inconclusive: 12.6 µM [activator, partial curve, poor fit].
With COc1cccc(CN(C)C(=O)c2csc3c2CCCC3)c1OC the Potency was inconclusive: 14.1 µM [activator, partial curve, poor fit].
With O=C(NC1=NCCS1)C1CCN(S(=O)(=O)c2cc([N+](=O)[O-])ccc2Cl)CC1 the Potency was inconclusive: 11.2 µM [activator, partial curve, poor fit].
With N#C/C(=C\c1ccc([N+](=O)[O-])cc1)C(=O)NCCCn1ccnc1 the Potency was inconclusive: 14.1 µM [activator, partial curve, poor fit].
With CCc1sc(C(=O)Nc2ccccc2N2CCOCC2)cc1C the Potency was inconclusive: 28.2 µM [activator, single point].
With Cc1ccc(NC(=S)NC2CCCC2)cc1C the Potency was inconclusive: 15.8 µM [activator, partial curve, poor fit].
For COc1ccc(-c2cc(C(=O)NN)n(-c3ccccc3)n2)cc1, the Potency was inconclusive: 12.6 µM [activator, single point].
For CN(C)CC(C)(C)CNC(=S)NCc1ccc2c(c1)OCO2, the “growth rescue (activation)” value was inactive: -13%.
In the case of COc1ccc(Cl)cc1NC(=O)C(C)N(C)Cc1cccc(Cl)c1Cl (stereo not drawn), the Potency is reported as inconclusive: 15.8 µM [activator, single point].
In the case of O/C(=C\c1nc2ccccc2[nH]1)c1cccs1, the Potency is reported as inconclusive: 12.6 µM [activator, partial curve, poor fit].
With NC(=O)c1ccc(-n2nc(C(F)(F)F)c3c2CCCC3)cc1 the Potency was inconclusive: 35.5 µM [activator, single point].
With CCOc1ccc(-c2c(=O)n(OCc3ccc([N+](=O)[O-])cc3)c3ccccc3[n+]2[O-])c(OCC)c1 the Potency was inconclusive: 35.5 µM [activator, single point].
